According to PubChem BioAssay AID1645882 (National Center for Advancing Translational Sciences (NCATS), 2021):
The campaign covered roughly 16,000 compounds. About 120 (0.75%) were called active. About 4% were inconclusive and are not listed. Calls follow the shape of the dose curve; as a rule, active = well fitted inhibition curve with a large enough effect; inconclusive = small, poorly fitted or top-dose-only effect; inactive = no such curve, though single readings can be large or run the other way. This is one part of the list.

What follows are compounds tested against Rap guanine nucleotide exchange factor 3 (Homo sapiens) (UniProt O95398) (assay: Validation qHTS for antagonist of cAMP-regulated guanine nucleotide exchange factor 3 (EPAC1)). Conditions: EPAC1 Rap1B-BODIPY-GDP exchange, fluorescence; series mostly up to 150 µM; activity change, negative = inhibition: at the top concentration.
UniProt O95398, sequence (O95398 whole entry, looked up): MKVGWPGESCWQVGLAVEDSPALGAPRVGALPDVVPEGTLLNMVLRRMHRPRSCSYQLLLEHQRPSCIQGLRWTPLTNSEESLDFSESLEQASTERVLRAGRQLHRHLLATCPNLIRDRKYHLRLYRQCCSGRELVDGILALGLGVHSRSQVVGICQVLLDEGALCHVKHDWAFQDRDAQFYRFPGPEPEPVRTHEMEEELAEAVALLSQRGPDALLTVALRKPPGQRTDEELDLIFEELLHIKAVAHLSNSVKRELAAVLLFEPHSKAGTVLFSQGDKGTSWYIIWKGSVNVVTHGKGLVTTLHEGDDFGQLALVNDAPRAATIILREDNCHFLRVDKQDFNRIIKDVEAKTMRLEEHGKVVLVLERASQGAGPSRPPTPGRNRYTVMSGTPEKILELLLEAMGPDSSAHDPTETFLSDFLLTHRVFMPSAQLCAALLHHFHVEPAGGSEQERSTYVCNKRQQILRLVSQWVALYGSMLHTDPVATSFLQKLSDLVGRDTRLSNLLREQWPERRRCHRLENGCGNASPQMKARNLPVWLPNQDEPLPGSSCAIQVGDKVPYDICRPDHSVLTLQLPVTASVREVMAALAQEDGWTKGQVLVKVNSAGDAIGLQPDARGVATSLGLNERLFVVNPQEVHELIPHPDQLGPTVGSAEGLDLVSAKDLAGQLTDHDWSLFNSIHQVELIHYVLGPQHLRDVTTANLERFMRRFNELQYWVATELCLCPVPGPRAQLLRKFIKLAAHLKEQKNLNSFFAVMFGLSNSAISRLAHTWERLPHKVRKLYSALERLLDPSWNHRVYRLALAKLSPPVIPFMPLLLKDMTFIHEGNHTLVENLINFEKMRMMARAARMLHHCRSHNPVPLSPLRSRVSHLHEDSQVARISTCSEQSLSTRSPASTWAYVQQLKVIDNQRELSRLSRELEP
In short: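 EPAC1 (100 nM) mixed with 250 nM RAP1B-BODIPY-GDP and 50 uM GDP; compounds in concentration series, 5 min at room temperature. Fluorescence (ex 480/em 540 nm) read every 5 min for 30 min; normalized to ATA control and DMSO.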
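Also: plate controls were DMSO for no effect and ATA control for full effect; nearly all actives have a fitted effect of over 75% in size.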

Activity change, negative = inhibition, inactive:
Cc1onc(-c2ccccc2)c1C(=O)NC1C(=O)N2C(C(=O)O)C(C)(C)S[C@@H]12 (some centres not stated) 3.53%, CO[C@H]1[C@H](NC(=O)c2ccsc2)c2ccccc2C12CCN(Cc1cc3ccccc3o1)CC2 -12.6%, CCC(C(=O)O)c1ccccc1 (configuration not stated) 7.49%, COc1cccc(Cn2c(=O)c(C)nc3cnc(OC)nc32)c1 19.2%, CCN(CC)CCOc1ccc2nc(N(C)C)sc2c1 0.343%, c1ccc(C(NCc2cccnc2)(c2ccccc2)c2ccccc2)cc1 -2.45% [at 75.8 µM], Cc1cnc(CNc2nc(-c3cccnc3)nc3ccccc23)cn1 10%, Cc1cccc(C#Cc2ccccc2)n1, N[C@H](C(=O)O)c1cc(O)cc(O)c1, CNc1cc(-c2c(C)noc2C)ncn1 -16.3%, C[C@@](N)(C(=O)O)c1ccc(P(=O)(O)O)cc1 5.12%, CCc1nc2cc(C(=O)N[C@H]3CCCCNC3=O)cc(NC(=O)c3ccccc3OC)c2n1C 19.4%, C[C@H](O)C(=O)Nc1c(I)c(C(=O)NC(CO)CO)c(I)c(C(=O)NC(CO)CO)c1I 12.9% [at 75.8 µM], CCCC(=O)NCCc1c2n(c3ccc(OC)cc13)CCCc1ccccc1-2 -13.2% [at 75.8 µM], O=C1CC2(CCCC2)CC(=O)N1CCCCN1CCN(c2ncccn2)CC1, COc1ccc(N2CCN(C(=O)c3cc(NC(C)=O)c4c(c3)ncn4CCc3ccccn3)CC2)cc1 -0.21%, COc1ccccc1CN1[C@@H](CC(=O)O)c2ccccc2S1(=O)=O 7.23%, Cc1cc2c(cc1Cl)N(C(=O)Nc1ccnc3ccccc13)CC2 -0.206% [at 75.8 µM], C=CC[N+]1([C@H]2C[C@H]3[C@@H]4CC[C@H]5C[C@H](OC(C)=O)[C@@H](N6CCCCC6)C[C@]5(C)[C@H]4CC[C@]3(C)[C@H]2OC(=O)CC)CCCCC1 39.6%, CN/C(=C\[N+](=O)[O-])NCCSCc1csc(CN(C)C)n1 8.6% [at 75.8 µM], Cc1cc(C)c(/C=C2\C(=O)Nc3ccccc32)[nH]1, O=C(NOC[C@H](O)CO)c1ccc(F)c(F)c1Nc1ccc(I)cc1F 33.3%, COc1ccc(-n2c(=O)c(-c3ccc(Cl)cc3)nc3cnc(N4CCNCC4)nc32)cc1 -0.258%, Cc1cnc(SCc2ccccn2)nc1C1CCCN(C(=O)c2cc3ccccc3oc2=O)C1 (configuration not stated) -0.115%, COc1ccc(OC)c(CN2CCCC(c3nc(C)ncc3-c3ccc(F)cc3)C2)c1 (configuration not stated) 9.73%, CS(=O)(=O)N1CCC[C@@]2(CCN(c3ccccc3)C2)C1 13.2%, CN1CCN(c2ccnc(-c3cccnc3)n2)CC1 0.807%, CN(C)c1ccc(CCC2C=Cc3ccccc32)cc1 (configuration not stated) 20.6%, CN(C)c1ncc2nc(-c3ccc(Cl)cc3)c(=O)n(Cc3cccs3)c2n1 12.4%, CN1CCN(c2ccnc(-c3ccc(N(C)C)cc3)n2)CC1 8.41%, O=c1cc(O)c(Cl)c[nH]1 8.18%, c1ccc(OCc2ccc(CCCN3CCOCC3)cc2)cc1 1.88%, O=C(c1ccc(Cn2cnnn2)cc1)N1CCOc2ccc(C(O)C3CCCCC3)cc2C1 (configuration not stated) -14%, O=C(NCCc1nnc2n1CCN(Cc1ccc3c(c1)CCO3)CC2)c1ccco1 9.17%, CC(C)=CCCC1=CC[C@H](C(=O)O)[C@H](C(=O)O)C1 15.8%, COc1ccc(OC)c(-c2cc(Cl)c3c(c2)CC(CNC(=O)/C=C/c2ccccn2)O3)c1 (configuration not stated) 2.41%, Cc1cccc2cc(CNCCCN3CCCC3=O)c(N3CCN4CCCC4C3)nc12 (configuration not stated) 0.346%, COc1ccc(-n2c(=O)c(C)nc3cnc(N4CCOCC4)nc32)cc1 8.43%, CN(C)c1ccc(-c2ccc3ncnc(-n4ccnc4)c3c2)cc1 2.85%, Cc1cnc(-n2ncc(C(=O)N(C)C3CCOC3)c2C)nc1-c1ccc(F)cc1 (configuration not stated) 11.6%, COc1cc(=O)n2c(c1C(=O)N(C)Cc1nccs1)CCN(Cc1cc3ccccc3s1)CC2 5.51%, O=c1cc(-c2cccc(O)c2)oc2cc(O)ccc12 -2.47%, CCn1ccnc1CC1COc2ccccc2O1 (configuration not stated), COc1ccc(SC[C@H](Cc2ccccc2)N2CC[C@@H](C)CCC2=O)cc1 -1.96%, CC(C)=CCC/C(C)=C/CO, COc1cccc(C(=O)NCc2nc(-c3cccc(NC(=O)c4ccoc4C)c3)oc2C)c1 -15.8%, O=C(NCc1ccccn1)c1cnn(-c2nccc(-c3ccccc3F)n2)c1C1CC1 15.1%, COc1cc2c(Cc3c4c5c(cc(OC)c(OC)c5c5c(OC)c(OC)ccc35)CCN4C)c3c4c(cc(OC)c(OC)c4c2cc1OC)CCN3C -8.94%, Cc1ccc(CNc2ncnc3sc(C(=O)N4CCCC(C(N)=O)C4)c(C)c23)o1 (configuration not stated) 10.1%, COc1ccc(-c2nc3cnc(N4CCNCC4)nc3n(-c3ccc(OC)cc3)c2=O)cc1 6.73%, O=C1c2ccccc2C(=O)c2c(O)ccc(O)c21 32.6%, CCC(C(=O)OCCN(CC)CC)c1ccccc1 (configuration not stated) 12.5%, CCn1cc(C(=O)O)c(=O)c2cc3c(cc21)OCO3, COC(=O)Nc1nc2ccc(S(=O)c3ccccc3)cc2[nH]1 (configuration not stated) -2.44%, Cc1cn(C2CCC(CO)O2)c(=O)[nH]c1=O (configuration not stated) 11.8%, c1ccc2c(NCCN3CCOCC3)nc(-c3ccc4c(c3)OCO4)nc2c1 -7.23%, CCCS(=O)(=O)NCc1c(C)ncc2c1CCN(C(=O)c1cccc(-c3ccccc3F)c1)C2 11.5%, O=c1cc(-c2ccccc2O)oc2c1ccc1ccccc12 4.7%, CC(=O)NCCNc1ncncc1-c1ccc(N(C)C)cc1 13.1%, COc1ccccc1CN1CCC2(CC1)CCN(S(C)(=O)=O)CC2 6.7%, COc1ccc2cc1Oc1cc3c(cc1OC)CC[N+](C)(C)[C@H]3Cc1ccc(cc1)Oc1c(OC)c(OC)cc3c1[C@@H](C2)[N+](C)(C)CC3 22.2%, Cc1ccc2nc(CNC(=O)c3cc(NC(=O)c4ccccc4)cc4ncn(C5CCCC5)c34)cn2c1 -0.413%, Cn1cccc1C(=O)N1CCC2(CC1)CN(C(=O)Nc1cccc(F)c1)C2 -2.87%, COCCn1c(=O)cnc2cnc(OC)nc21 15.2%, CC(=O)c1ccc(F)c(-c2cc(C)cc3c2OC(CNC(=O)Cc2c[nH]c4ccccc24)C3)c1 (configuration not stated) 3.68%, CC(C)NC(=O)N1CCCC2(CCN(C(=O)c3csnn3)CC2)C1 30.2%, NC(=O)N1c2ccccc2C=Cc2ccccc21
